# Test results: the supplement of paper PMC8728848
# The other results are listed elsewhere or left out.
# Legend:
# Experiment in all cases: glycan array binding signal (z-score within array); higher = stronger binding
# Details in all cases: glycan notation: IUPAC condensed, linker removed
# [1] = molecular target: Gal(a1-2)Gal
# Summary of the method: (§1)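 From the Consortium for Functional Glycomics database, 3228 arrays were curated, keeping only those whose protein sequence was available. Binding is given as a within-array Z-score averaged across arrays sharing a protein sequence and across linkers. Negative Z-scores can be read as non-binding.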
# [2] = molecular target: Gal(a1-3)Gal
# Summary of the method: as §1
# [3] = molecular target: Gal(a1-3)Gal(b1-3)GlcNAc
# Summary of the method: as §1
# [4] = molecular target: Gal(a1-3)Gal(b1-4)Glc
# Summary of the method: as §1
# [5] = molecular target: Gal(a1-3)Gal(b1-4)GlcNAc
# Summary of the method: as §1
# [6] = molecular target: Gal(a1-3)Gal(b1-4)[Fuc(a1-3)]GlcNAc
# Summary of the method: as §1
# [7] = molecular target: Gal(a1-3)GalNAc
# Summary of the method: as §1
# [8] = molecular target: Gal(a1-3)[Gal(a1-4)]Gal(b1-4)GlcNAc
# Summary of the method: as §1
# [9] = molecular target: Gal(a1-4)Gal(b1-4)Glc
# Summary of the method: as §1
# [10] = molecular target: Gal(a1-4)Gal(b1-4)GlcNAc
# Summary of the method: as §1
# [11] = molecular target: Gal(a1-4)GlcNAc
# Summary of the method: as §1
# [12] = molecular target: Gal(a1-6)Glc
# Summary of the method: as §1
# [13] = molecular target: Gal(b1-2)Gal
# Summary of the method: as §1
# [14] = molecular target: Gal(b1-3)Gal
# Summary of the method: as §1
# [15] = molecular target: Gal(b1-3)GalNAc
# Summary of the method: as §1
# [16] = molecular target: Gal(b1-3)GalNAc(b1-3)Gal(a1-4)Gal(b1-4)Glc
# Summary of the method: as §1
# [17] = molecular target: Gal(b1-3)GalNAc(b1-4)Gal(b1-4)Glc
# Summary of the method: as §1
# [18] = molecular target: Gal(b1-3)GalNAc(b1-4)[Neu5Ac(a2-3)]Gal(b1-4)Glc
# Summary of the method: as §1
# [19] = molecular target: Gal(b1-3)GlcNAc
# Summary of the method: as §1
# [20] = molecular target: Gal(b1-3)GlcNAc(b1-3)Gal(b1-4)Glc
# Summary of the method: as §1
# [21] = molecular target: Gal(b1-3)GlcNAc(b1-3)Gal(b1-4)GlcNAc
# Summary of the method: as §1
# [22] = molecular target: Gal(b1-3)[Fuc(a1-4)]GlcNAc
# Summary of the method: as §1
# [23] = molecular target: Gal(b1-3)[Fuc(a1-4)]GlcNAc(b1-3)Gal(b1-4)GlcNAc
# Summary of the method: as §1
# [24] = molecular target: Gal(b1-3)[Fuc(a1-4)]GlcNAc(b1-3)Gal(b1-4)[Fuc(a1-3)]GlcNAc
# Summary of the method: as §1
# [25] = molecular target: Gal(b1-3)[GlcNAc(b1-6)]GalNAc
# Summary of the method: as §1
# [26] = molecular target: Gal(b1-3)[Neu5Ac(a2-6)]GalNAc
# Summary of the method: as §1
# [27] = molecular target: Gal(b1-3)[Neu5Ac(a2-6)]GlcNAc(b1-6)Gal(b1-4)Glc
# Summary of the method: as §1
# [28] = molecular target: Gal(b1-3)[Neu5Ac(b2-6)]GalNAc
# Summary of the method: as §1
# [29] = molecular target: Gal(b1-4)GalNAc(a1-3)[Fuc(a1-2)]Gal(b1-4)GlcNAc
# Summary of the method: as §1
# [30] = molecular target: Gal(b1-4)GalNAc(b1-3)[Fuc(a1-2)]Gal(b1-4)GlcNAc
# Summary of the method: as §1
# [31] = molecular target: Gal(b1-4)Glc
# Summary of the method: as §1
# [32] = molecular target: Gal(b1-4)Glc6S
# Summary of the method: as §1
# [33] = molecular target: Gal(b1-4)GlcNAc
# Summary of the method: as §1
# [34] = molecular target: Gal(b1-4)GlcNAc(b1-2)Man(a1-3)[Gal(b1-4)GlcNAc(b1-2)Man(a1-6)]Man(b1-4)GlcNAc(b1-4)GlcNAc
# Summary of the method: as §1
# [35] = molecular target: Gal(b1-4)GlcNAc(b1-3)Gal(b1-4)Glc
# Summary of the method: as §1
# [36] = molecular target: Gal(b1-4)GlcNAc(b1-3)Gal(b1-4)GlcNAc
# Summary of the method: as §1
# [37] = molecular target: Gal(b1-4)GlcNAc(b1-3)Gal(b1-4)GlcNAc(b1-3)Gal(b1-4)GlcNAc
# Summary of the method: as §1
# [38] = molecular target: Gal(b1-4)GlcNAc(b1-3)Gal(b1-4)[Fuc(a1-3)]GlcNAc(b1-3)Gal(b1-4)[Fuc(a1-3)]GlcNAc
# Summary of the method: as §1
binder,measurement,setting,value
FaeGac (Escherichia coli) (protein) WMTGDFNGSVDIGGSITADDYRQKWEWKVGTGLNGFGNVLNDLTNGGTKLTITVTGNKPILLGRTKEAFATPVTGGVDGIPHIAFTDYEGASVVLRNPDGETNKKGLAYFVLPMKNAEGTKVGSVKVNASYAGVLGRGGVTSADGELLSLFADGLSSIFYGGLPRGSELSAGSAAAERTKLFGSLSRNDILGQIQRVNANITSLVDVAGSYRENMEYTDGTVVSAAYALGIANGQTIEATFNQAVTTSTQWSAPLNVAITYY,glycan array binding signal (z-score),[1],0.208
same,glycan array binding signal (z-score),[2],-0.711
same,glycan array binding signal (z-score),[3],-0.433
same,glycan array binding signal (z-score),[4],-0.545
same,glycan array binding signal (z-score),[5],-0.716
same,glycan array binding signal (z-score),[6],-0.05
same,glycan array binding signal (z-score),[7],-0.034
same,glycan array binding signal (z-score),[8],-0.563
same,glycan array binding signal (z-score),[9],-0.179
same,glycan array binding signal (z-score),[10],0.397
same,glycan array binding signal (z-score),[11],-0.178
same,glycan array binding signal (z-score),[12],0.975
same,glycan array binding signal (z-score),[13],0.274
same,glycan array binding signal (z-score),[14],1.14
same,glycan array binding signal (z-score),[15],0.886
same,glycan array binding signal (z-score),[16],0.052
same,glycan array binding signal (z-score),[17],0.323
same,glycan array binding signal (z-score),[18],-0.107
same,glycan array binding signal (z-score),[19],-0.462
same,glycan array binding signal (z-score),[20],0.4
same,glycan array binding signal (z-score),[21],-0.702
same,glycan array binding signal (z-score),[22],-0.136
same,glycan array binding signal (z-score),[23],-0.606
same,glycan array binding signal (z-score),[24],0.284
same,glycan array binding signal (z-score),[25],0.764
same,glycan array binding signal (z-score),[26],0.292
same,glycan array binding signal (z-score),[27],-0.361
same,glycan array binding signal (z-score),[28],0.147
same,glycan array binding signal (z-score),[29],-0.154
same,glycan array binding signal (z-score),[30],-0.395
same,glycan array binding signal (z-score),[31],0.258
same,glycan array binding signal (z-score),[32],1.04
same,glycan array binding signal (z-score),[33],-0.506
same,glycan array binding signal (z-score),[34],-0.258
same,glycan array binding signal (z-score),[35],0.611
same,glycan array binding signal (z-score),[36],0.019
same,glycan array binding signal (z-score),[37],-0.371
same,glycan array binding signal (z-score),[38],0.771
